Assay results reported in PubChem BioAssay AID624296 (National Center for Advancing Translational Sciences (NCATS), 2012).
Among all 350,000 compounds or so, about 9,900 (2.8%) were called active. Inconclusive results, whose numbers are uncertain, are shown with a selection of clear calls. The call rests on the fitted dose curve; in most records, active means well fitted activation curve with a large enough effect; inconclusive means small, poorly fitted or top-dose-only effect; inactive means no such curve, though single readings can be large or run the other way. Potencies of inconclusive entries are left out as doubtful fits.

assay: A quantitative high throughput screen for small molecules that induce DNA re-replication in MCF 10a normal breast cells.; further: nearly all actives have a fitted effect of over 50% in size; on activity, positive = re-replication: % of control where 0% means no effect; conditions: MCF 10A DNA re-replication, Hoechst nuclear intensity, 48 h; activity, positive = re-replication: at 46.1 µM (top of the series)
Potency means the concentration at half of the fitted maximal effect; tags describe the fitted curve by direction and shape.

SMILES	Potency	activity, positive = re-replication
COc1ccc(OC)c(Nc2cc3ccccc3c(=O)[nH]2)c1	active: 16.4 µM	–
CN(C(=O)c1cccc(NC(=O)Cc2ccc(NC(=O)C3CCCN(C(=O)CCc4ccccc4)C3)cc2)c1)C1CCC1 (stereo not drawn)	inconclusive [activator, partial curve, poor fit]	–
COC(=O)c1c(-c2ccccc2OC)sc2ccccc12	inconclusive [activator, single point]	–
O=C(N/N=C/c1cn(-c2ccccc2)nc1-c1cc2ccccc2o1)c1c[nH]c2ccccc12	–	inactive: 2.43%
Cc1ccc(-c2cc(C(F)F)nc(N3CCOCC3)n2)cc1	inconclusive [activator, single point]	–
O=C(C1CCN(c2ncnc3c2sc2cccc(F)c23)CC1)N1CCOCC1	–	inactive: -13.5%
CCOC(=O)NC(=O)/C(C#N)=N\Nc1cccc(Cl)c1	inconclusive [activator, full curve, poor fit]	–
OCC(O)CN(c1ccccc1)c1ccccc1 (stereo not drawn)	inconclusive [activator, partial curve, poor fit]	–
O=C(CSc1nnc(C2CC2)n1-c1ccccc1)N1CCCC1	–	inactive: 7.62%
Cc1ccc(-c2nnc(SCC(=O)N/N=C/c3ccc(C)s3)n2-c2ccccc2)cc1	active: 18.4 µM	–
COC(=O)c1ccc(S(=O)(=O)N2CCN(C)CC2)n1C	–	inactive: -4.94%
FC(F)(F)c1nc(-c2ccccc2)ncc1-c1nnnn1-c1ccccc1	inconclusive [activator, single point]	–
COC(=O)c1cc(NC(=O)Cc2ccccc2[N+](=O)[O-])ccc1Cl	–	inactive: -3.8%
O=S1(=O)CC(O)C(NCc2cccnc2)C1 (stereo not drawn)	active: 5.17 µM	–
COc1ccc(CC(=O)N/N=C/c2c(C)n(C)c3ccccc23)cc1OC	active: 7.31 µM	–
O=C(Nc1cccc(Cl)c1N1CCCCC1)c1ccc2c(c1)OCCO2	inconclusive [activator, single point]	–
COc1ccc(C(C)=O)cc1COC(=O)C1CCN(C(=O)c2ccc(Cl)cc2)CC1	–	inactive: 0.163%
COc1cccc(CN(C)C(=O)c2cc(S(=O)(=O)NCc3ccccc3)ccc2C)c1OC	–	inactive: 2.37%
Cc1cc(C)nc(/N=C(\N)Nc2ccc(C(C)C)cc2)n1	inconclusive [activator, single point]	–
COC(=O)c1c(NC(=O)CN2CCC3(O)CCCCC3C2c2ccccc2OC)sc(C)c1C (stereo not drawn)	inconclusive [activator, partial curve, poor fit]	–
CCc1c(C)c2cc(Cl)c(O)c(CN(CC)CC)c2oc1=O	inconclusive [activator, single point]	–
Cc1cc(/C=N/NC(N)=S)c(C)n1-c1ccc(Br)cc1	inconclusive [activator, single point]	–
Cc1ccc(-n2ncc(C(=O)Nc3cc(Cl)cc(Cl)c3)c2C2CCNCC2)cc1C	inconclusive [activator, full curve, poor fit]	–
Cc1nc(Sc2ccc(Cl)cc2)c(C#N)c(C)c1[N+](=O)[O-]	active: 18.4 µM	–

SMILES	Potency	activity, positive = re-replication
N#Cc1c(N2CCN(C(=O)c3ccccc3Cl)CC2)nc(-c2ccccc2)c2c1CCCC2	inconclusive [activator, single point]	–
CCCCCCCCC(=O)N/N=C/c1cccc(Br)c1	active: 18.4 µM	–
O=C(c1cc(-c2ccncc2)nc2ccccc12)N1CCN(c2ccccn2)CC1	active: 10.3 µM	–
CCOC(=O)C1CCN(c2nc(-c3ccccc3)nc3c2oc2ccccc23)CC1	–	inactive: -2.2%
O=C1C2C3C=CC(C3)C2C(=O)N1CCc1ccccc1 (stereo not drawn)	–	inactive: 15.8%
COc1ccc(NC(=O)Nc2cccc([N+](=O)[O-])c2)cc1Cl	inconclusive [activator, partial curve, poor fit]	–
COc1cc(-c2nc3ccc4ccccc4c3c3c2CCC3)cc(OC)c1O	active: 14.6 µM	–
Cc1csc(NC(=O)CSc2[nH]c(=O)ncc2C)n1	–	inactive: -0.0544%
Cc1cc(C(=O)NCCC(c2ccccc2)c2ccccc2)c(C)o1	inconclusive [activator, single point]	–
O=C(CSc1nc2ccccc2c(=O)n1-c1ccc(F)cc1)NCc1ccco1	–	inactive: 8.4%
Cc1cccc(C)c1NC(=O)CN(C)C(=O)c1cccc(NS(=O)(=O)c2ccccc2)c1	–	inactive: 4.1%
C[C@@H](C(=O)N1CCN(C(=O)OC(C)(C)C)CC1)n1cc(CCCN=C(NC(=O)OC(C)(C)C)NC(=O)OC(C)(C)C)nn1	–	inactive: -41.8%
CCOC(=O)Nc1ccc2nc(N3CCCCCC3)sc2c1	active: 14.6 µM	–
Cc1ccc(OCC(=O)O)c(-n2nc3ccccc3n2)c1	–	inactive: -5.22%
CCCNC(=O)c1ccccc1NC(=O)c1ccc2c(c1)NC(=O)C(C)S2 (stereo not drawn)	inconclusive [activator, partial curve]	–
CC(=O)C1=C(C)OC(N)=C(C#N)C1c1cc([N+](=O)[O-])ccc1Cl (stereo not drawn)	inconclusive [activator, single point]	–
NC(=O)[C@@H]1CC2(CC(c3cccc(NC(=O)[C@@H]4CCC(=O)N4)c3)=NO2)CN1C(=O)Cc1ccc([N+](=O)[O-])cc1 (stereo partly drawn)	–	inactive: 13.7%
COC(=O)c1ccccc1-c1ccc(/C=N/Nc2nc(N3CCCC3)nc(N3CCCC3)n2)o1	inconclusive [activator, partial curve]	–
O=C(NNC(=O)c1ccco1)c1csc(N2CCOCC2)n1	–	inactive: 1.36%
NS(=O)(=O)c1ccc(N2N=C(c3ccccc3)CC2c2ccccc2Br)cc1 (stereo not drawn)	inconclusive [activator, partial curve, poor fit]	–
O=[N+]([O-])c1ccc(N/N=C/c2ccccc2)cc1	inconclusive [activator, partial curve, poor fit]	–
Cc1cc(C)cc(N(CC(=O)NCC2CCCO2)C(=O)CCC(=O)Nc2nccs2)c1 (stereo not drawn)	inconclusive [activator, single point]	–
O=C(Nc1nc2cc3c(cc2s1)OCO3)C1CC1	–	inactive: 9.31%
Nn1c(Cc2cccc3ccccc23)nnc1SCc1c(F)cccc1Cl	–	inactive: 17.7%
